# Results taken from article PMC6451091.
# This is one part of the list. For part of these data: At the low end of the ranking, values are background and their order means little. For part of these data: Measured with an extract: partners may take part in the binding.
# Target: PU.1 (IVT) (UniProt P17947)
# Assay: protein-binding microarray (PBM)
# Settings: 20 mM HEPES pH 7.9, 100 mM NaCl, 1 mM DTT, 0.2 mg/mL BSA, 0.02% Triton X-100, 2% milk, 0.4 mg/mL salmon testes DNA; 1 h; temperature not stated; high values mean tight binding; double strand, one strand shown; sequences stand for … in GCCTAGCAC…GTGCTAGGTCTTGATTCGCTTGACGCTGCTG
row,Sequence,binding signal [z-score]
1,TGACTGGAGTGTAATGAGGT,-0.869
2,GCGGCGGGGCTGTCAGGCTC,-0.631
3,GGCTGGCCTGCGTGAAACTC,-0.665
4,TCCACAGCAAGGCTGCCGTG,0.12
5,TCTGTTACACTTAAAACACA,0.221
6,GGTAGAGCTGCGTGAAAGTG,-0.785
7,ACAAACGCTGCGTGAAAGCT,-0.452
8,GGGGAGACTGCGTGAAAGCA,-0.125
9,TAGGGTTTAAACCTGATCAG,-0.788
10,CCTCCACTTTGGGTAAATCT,-0.143
11,CCAGCTTCAGTTTGCTGAGT,-0.873
12,ACAATATTGTTTCTTTGAAA,-0.31
13,CCATGCATAAAATTTTATGA,0.0197
14,CTCCAAATGCATTTCTTGGT,-0.237
15,TCTTTTGGACTTCTGACCTC,-0.312
16,ATTGTATTTCATCACAGTCT,-0.317
17,GGATCCGCTGGGAGGGGTGG,-0.363
18,ACGTGGGGGAGTTAAGAGAC,-0.228
19,GAAAGGACTGCGTGAAACTG,-0.533
20,AGGTAACCATACTGTCTTGA,-0.278

row,Sequence,binding signal [z-score]
1,AGGCAGTGAGCTAAGATTGC,-0.465
2,TCAACATCTGCGTGAAAGTC,-0.225
3,ATTTATGCAACTGATCACAG,0.0576
4,ACAGGAAGCTTGGTGGACAC,0.407
5,GCTGTGCCTATTCTCATCTG,-0.455
6,AATTTGACTGCCTGAAAGAA,-0.116
7,AAATGCTTTCCCCCAAATTA,-0.241
8,TACGTTTTTCAGAGAATTTC,0.314
9,GGGCCATGGATGGGCAAAAG,-0.378
10,CCGGGGGCGGGGCTTCGCCG,-0.429
11,TTTAGATTTTTTAAGTGAGT,-0.283
12,TGACTCACAGACCAAGACTT,-0.867
13,GACGGCTCCGGCGTCGGGTC,-0.273
14,AAGAGAAGAAACAGCAGAAT,-0.219
15,AGGAAGGAAGCCTGCAGACA,0.439
16,TTCTTTCGCAGGTCAGGGCA,0.131
17,CAACCAACTCTACCTGAGAA,0.225
18,TAGTTCCCTCCCTGTCAAAG,2.32
19,GAGAGTAGCCTAGTCCCTAG,-0.602
20,AAAAGGACTGCGTGAAAGTA,0.0725

# Target: PU.1 (endogenous, THP-1 nuclear extract) (UniProt P17947)
# Assay: nuclear extract protein-binding microarray (nextPBM)
# Settings: 20 mM HEPES pH 7.9, 100 mM NaCl, 1 mM DTT, 0.2 mg/mL BSA, 0.02% Triton X-100, 2% milk, 0.4 mg/mL salmon testes DNA; 1 h; temperature not stated; high values mean tight binding; double strand, one strand shown; sequences stand for … in GCCTAGCAC…GTGCTAGGTCTTGATTCGCTTGACGCTGCTG
row,Sequence,binding signal [z-score]
1,TGACTGGAGTGTAATGAGGT,-0.319
2,GCGGCGGGGCTGTCAGGCTC,0.0579
3,GGCTGGCCTGCGTGAAACTC,-0.419
4,TCCACAGCAAGGCTGCCGTG,0.034
5,TCTGTTACACTTAAAACACA,-0.341
6,GGTAGAGCTGCGTGAAAGTG,-0.345
7,ACAAACGCTGCGTGAAAGCT,-0.538
8,GGGGAGACTGCGTGAAAGCA,-0.585
9,TAGGGTTTAAACCTGATCAG,-0.387
10,CCTCCACTTTGGGTAAATCT,-0.54
11,CCAGCTTCAGTTTGCTGAGT,-0.186
12,ACAATATTGTTTCTTTGAAA,-0.613
13,CCATGCATAAAATTTTATGA,0.000896
14,CTCCAAATGCATTTCTTGGT,-0.255
15,TCTTTTGGACTTCTGACCTC,0.0596
16,ATTGTATTTCATCACAGTCT,-0.654
17,GGATCCGCTGGGAGGGGTGG,-0.163
18,ACGTGGGGGAGTTAAGAGAC,-0.172
19,GAAAGGACTGCGTGAAACTG,-0.788
20,AGGTAACCATACTGTCTTGA,-0.154

row,Sequence,binding signal [z-score]
1,AGGCAGTGAGCTAAGATTGC,-0.683
2,TCAACATCTGCGTGAAAGTC,-0.451
3,ATTTATGCAACTGATCACAG,0.00426
4,ACAGGAAGCTTGGTGGACAC,0.78
5,GCTGTGCCTATTCTCATCTG,-0.3
6,AATTTGACTGCCTGAAAGAA,-0.0899
7,AAATGCTTTCCCCCAAATTA,-0.353
8,TACGTTTTTCAGAGAATTTC,-0.154
9,GGGCCATGGATGGGCAAAAG,-0.237
10,CCGGGGGCGGGGCTTCGCCG,-1.15
11,TTTAGATTTTTTAAGTGAGT,-0.474
12,TGACTCACAGACCAAGACTT,-0.286
13,GACGGCTCCGGCGTCGGGTC,0.0236
14,AAGAGAAGAAACAGCAGAAT,-0.143
15,AGGAAGGAAGCCTGCAGACA,0.536
16,TTCTTTCGCAGGTCAGGGCA,0.369
17,CAACCAACTCTACCTGAGAA,0.628
18,TAGTTCCCTCCCTGTCAAAG,1.94
19,GAGAGTAGCCTAGTCCCTAG,-0.41
20,AAAAGGACTGCGTGAAAGTA,-0.528

# Target: T1, FLI1 (endogenous, THP-1 nuclear extract) (UniProt Q01543)
# T1 sequence: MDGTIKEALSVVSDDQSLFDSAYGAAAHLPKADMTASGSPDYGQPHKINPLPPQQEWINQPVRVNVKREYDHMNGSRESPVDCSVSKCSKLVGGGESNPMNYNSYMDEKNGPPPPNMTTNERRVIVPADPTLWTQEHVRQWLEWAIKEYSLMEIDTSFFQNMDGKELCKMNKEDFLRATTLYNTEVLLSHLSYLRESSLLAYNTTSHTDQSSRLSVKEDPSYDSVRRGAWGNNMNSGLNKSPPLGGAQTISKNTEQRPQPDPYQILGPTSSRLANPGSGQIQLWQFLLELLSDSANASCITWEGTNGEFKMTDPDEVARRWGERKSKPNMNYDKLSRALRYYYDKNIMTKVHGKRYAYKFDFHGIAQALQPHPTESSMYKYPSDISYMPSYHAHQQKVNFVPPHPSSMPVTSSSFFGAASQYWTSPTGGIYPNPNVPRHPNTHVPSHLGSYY
# Assay: as above
# Settings: 20 mM HEPES pH 7.9, 100 mM NaCl, 1 mM DTT, 0.2 mg/mL BSA, 0.02% Triton X-100, 2% milk, 0.4 mg/mL salmon testes DNA; 1 h; temperature not stated; high values mean tight binding; double strand, one strand shown; sequences stand for … in GCCTAGCAC…GTGCTAGGTCTTGATTCGCTTGACGCTGCTG
row,Sequence,binding signal [z-score]
1,TGACTGGAGTGTAATGAGGT,-0.492
2,GCGGCGGGGCTGTCAGGCTC,-0.158
3,GGCTGGCCTGCGTGAAACTC,-0.861
4,TCCACAGCAAGGCTGCCGTG,-0.632
5,TCTGTTACACTTAAAACACA,-0.431
6,GGTAGAGCTGCGTGAAAGTG,-0.438
7,ACAAACGCTGCGTGAAAGCT,-0.598
8,GGGGAGACTGCGTGAAAGCA,-0.81
9,TAGGGTTTAAACCTGATCAG,-1.41
10,CCTCCACTTTGGGTAAATCT,-0.463
11,CCAGCTTCAGTTTGCTGAGT,-0.229
12,ACAATATTGTTTCTTTGAAA,-0.454
13,CCATGCATAAAATTTTATGA,-0.313
14,CTCCAAATGCATTTCTTGGT,-0.253
15,TCTTTTGGACTTCTGACCTC,-0.541
16,ATTGTATTTCATCACAGTCT,-0.364
17,GGATCCGCTGGGAGGGGTGG,-0.153
18,ACGTGGGGGAGTTAAGAGAC,-0.429
19,GAAAGGACTGCGTGAAACTG,0.178
20,AGGTAACCATACTGTCTTGA,-0.393

row,Sequence,binding signal [z-score]
1,AGGCAGTGAGCTAAGATTGC,-0.383
2,TCAACATCTGCGTGAAAGTC,-1.07
3,ATTTATGCAACTGATCACAG,-0.0813
4,ACAGGAAGCTTGGTGGACAC,3.4
5,GCTGTGCCTATTCTCATCTG,-0.321
6,AATTTGACTGCCTGAAAGAA,-0.655
7,AAATGCTTTCCCCCAAATTA,-0.098
8,TACGTTTTTCAGAGAATTTC,-0.0218
9,GGGCCATGGATGGGCAAAAG,-0.976
10,CCGGGGGCGGGGCTTCGCCG,-0.0848
11,TTTAGATTTTTTAAGTGAGT,-0.363
12,TGACTCACAGACCAAGACTT,-0.555
13,GACGGCTCCGGCGTCGGGTC,-0.341
14,AAGAGAAGAAACAGCAGAAT,-1.12
15,AGGAAGGAAGCCTGCAGACA,2.6
16,TTCTTTCGCAGGTCAGGGCA,-0.294
17,CAACCAACTCTACCTGAGAA,-0.456
18,TAGTTCCCTCCCTGTCAAAG,0.666
19,GAGAGTAGCCTAGTCCCTAG,-1.66
20,AAAAGGACTGCGTGAAAGTA,-0.559
